According to the supplement of paper PMC3724861:
Some of the results follow.

What follows are sequences tested on T1, Caupolican (Caup) homeodomain DNA-binding domain (assay: PBM E-score (8-mer, recovered from the published 9-mer minima) (E-score (dimensionless, -0.5 to 0.5)); Drosophila protein; higher = stronger relative binding preference, active = 0.31 or more).
T1 sequence: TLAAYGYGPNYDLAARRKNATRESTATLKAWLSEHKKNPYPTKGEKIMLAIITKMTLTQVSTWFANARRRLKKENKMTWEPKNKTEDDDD
Outline: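 Caup's homeodomain DNA-binding domain (residues 214-303) was produced by in vitro transcription and translation and applied at 100 nM to custom-designed protein binding microarrays. Each value is an enrichment score giving relative binding preference for a short DNA word; higher means stronger. Published 9-mer scores were the minimum of their two constituent 8-mer scores, and the 8-mer values were recovered from those minima. A cutoff of 0.31 marks candidate binding sequences.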

Sequence | PBM E-score
CCCCGACA | inactive: 0.0258
GACGTTGA | inactive: 0.00712
AGCAGGCG | ≥ -0.0534
CGGGCCGC | inactive: -0.245
CAGACGGC | inactive: -0.144
GCACAGGC | inactive: -0.0733
TACAAAAA | inactive: 0.255
AACATTAG | inactive: 0.271
CCCTCCAC | inactive: -0.218
CAGCAGGG | inactive: -0.172
CGTCACAC | inactive: 0.069
CGTGACTC | inactive: -0.0603
ATCAAAAA | inactive: 0.107
GATATCCA | ≥ 0.135
ACCGCGCG | inactive: -0.123
TATCCTGA | inactive: 0.0685
ATAAGACG | inactive: 0.123
ACAACTGG | inactive: 0.0957
TTCTAGAA | inactive: -0.0405
ACGGGTCC | inactive: -0.18
ATTACCAG | inactive: 0.0804
ACATCTCA | inactive: 0.19
GAGTGACC | inactive: -0.0763
GGCAATTA | inactive: -0.00055
CGACTTAC | inactive: -0.0464

Sequence | PBM E-score
GGATTGGA | inactive: -0.00273
ACAGTAAA | inactive: 0.124
AAGGGCAG | inactive: -0.129
CATATAGC | inactive: 0.0802
CGCCACCA | inactive: -0.272
ATGGTTAC | inactive: 0.207
GCGTAACC | inactive: -0.0415
CAGAATCC | inactive: 0.0417
CCGTTGAA | inactive: -0.092
ACTAAACC | inactive: 0.00838
ACGAGTGC | inactive: 0.0719
CCCACCTA | inactive: -0.1
ATCGGCTA | inactive: 0.0053
TATAACGA | inactive: 0.138
GAGAGGCA | inactive: -0.216
AGGCACCG | inactive: -0.0703
CCACACCA | inactive: 0.0142
TCATTTAA | inactive: 0.167
CGTGGCAA | inactive: -0.0386
CGATAGTC | inactive: 0.00431
AGAACTCT | inactive: -0.0309
GTACCGAC | inactive: 0.0197
TCTGGTAA | inactive: 0.133
AAACAAAG | inactive: 0.107
ATGGATAC | inactive: 0.159

Sequence | PBM E-score
GTCGCCAC | inactive: -0.11
AAGTAAAC | inactive: 0.199
AGTACGGG | inactive: -0.0625
CTTTCGGC | inactive: -0.0228
CCTTCGTA | inactive: -0.151
CACATCTG | inactive: 0.0639
AATCGCAA | inactive: -0.00305
CTGTTTAA | inactive: 0.111
ATACCGGC | inactive: -0.0451
CCGTATCA | inactive: -4e-05
ATGAATCA | inactive: 0.114
GACAAGTC | inactive: 0.236
ATAACGGG | inactive: -0.0575
TTGATAAA | inactive: 0.151
CACGGGGA | inactive: -0.146
ATTACAAG | active: ≥ 0.427
ACATTATA | inactive: 0.245
CTCTTCCA | inactive: -0.116
GCTAATAC | inactive: 0.0902
CCCTTTCA | inactive: -0.126
GTGGCCTA | inactive: -0.163
ATGGGGTG | inactive: -0.023
GGTTACGA | inactive: -0.0197
CAGCGAAA | inactive: -0.0247
CACTTTAC | inactive: 0.103

Sequence | PBM E-score
ATTAAGGC | inactive: -0.0527
AGGACGCC | inactive: -0.128
CGTCTAAC | inactive: -0.00299
CTAATCAA | inactive: 0.179
AGGTCGAA | inactive: -0.0135
AAGAATGT | inactive: 0.199
CGACCCGA | inactive: -0.151
CCAGGCGG | inactive: -0.185
AGACGCGC | inactive: -0.0474
GGTCCCAC | inactive: -0.204
GGGTGGCA | inactive: -0.202
AATAGCGT | inactive: 0.0707
GAATGACA | inactive: 0.259
TCCGAGAA | inactive: 0.0132
CCATAAAC | inactive: 0.00834
GTAAGCGA | inactive: 0.0662
CAGGTAAG | inactive: 0.0455
CGAGCTCA | inactive: -0.105
AGGCGGTA | inactive: -0.139
CTGCAGGA | inactive: -0.0296
CATACACG | active: 0.325
ACACAAAT | inactive: 0.184
AAGCATGG | inactive: 0.00906
AGCTAACC | inactive: -0.0905
ACTGATAT | inactive: 0.161

Sequence | PBM E-score
AACACGAG | inactive: 0.266
CCGCAGAG | inactive: -0.223
ATTGCATA | inactive: 0.113
ATGATGCA | ≥ 0.172
CGATAACA | inactive: 0.244
CGTTCAGA | inactive: 0.034
CGGCGATA | inactive: 0.0135
AGTACAAA | inactive: 0.26
AAACTGCC | inactive: -0.00805
CGCTACCC | inactive: -0.164
CAACACTG | inactive: 0.0579
GCCTGGAA | inactive: -0.0661
ACATGTAG | active: 0.476
CAAACCAA | inactive: 0.112
ACACGCGG | inactive: 0.151
GCTACACC | inactive: 0.0733
ATATAGCA | inactive: 0.128
ACCTGAGG | inactive: -0.104
GCGATAGA | inactive: -0.0431
AAGATTAC | inactive: 0.0786
ATCGTTGG | inactive: 0.0483
AAGTATCA | inactive: 0.158
GTTACCCA | inactive: 0.0172
ATATGCAC | inactive: 0.103
AGGTGGTC | inactive: -0.0482

Sequence | PBM E-score
GATCGGAC | inactive: 0.106
GGATTGAC | inactive: 0.0664
ACGCCAAA | inactive: -0.0402
CAAAGCTA | inactive: 0.00033
AGCCGTGC | inactive: -0.133
ACTTAATA | inactive: 0.128
CCGCGAAA | inactive: -0.106
AGAATCGC | inactive: -0.0624
CACTATGC | inactive: 0.102
GAGATTTA | inactive: -0.0673
CGGCACAG | inactive: -0.169
AACACTAC | inactive: 0.222
ATGCGGAA | inactive: -0.0956
CCACACGG | inactive: -0.116
GTCGTACA | active: 0.352
AATCACGG | inactive: 0.0899
GATCTTCC | inactive: -0.1
AGTATCAC | inactive: 0.0862
TTCACCAA | inactive: -0.0154
GTCCAGGA | inactive: -0.00804
GCATTTCC | inactive: -0.0819
AGCGGCAT | inactive: -0.0552
AAATTTAT | inactive: 0.0898
CCGACTAG | inactive: -0.0872
CTTAATGA | inactive: -0.00974

Sequence | PBM E-score
GACGATAA | inactive: 0.0883
ATCGATGC | inactive: 0.0171
CCCGTCAC | inactive: -0.158
ATGAGGAG | inactive: -0.064
AGAAGCCA | inactive: -0.129
TCAGCGCA | inactive: -0.0633
ATGTGTGG | inactive: 0.0766
GGCGGTAC | inactive: -0.0735
GATGCGCA | inactive: -0.0837
AGGTTTGA | inactive: -0.052
AAGAGGAA | inactive: -0.0749
CTGGTAAG | inactive: -0.00689
ACATATTA | active: 0.33
ACTCGTTA | inactive: 0.0225
ATTAGTCC | inactive: 0.00589
AAGACACC | inactive: 0.0398
AAACTAAC | inactive: 0.194
TCTCTCAA | ≥ -0.00117
AGACAACA | active: 0.349
GGAGCGTA | inactive: -0.108
ACAAATAT | inactive: 0.273
AGACATCT | inactive: 0.172
AGCATCCT | inactive: -0.0345
AAGCGTTC | inactive: -0.0983
GATTCCCA | inactive: -0.0357

Sequence | PBM E-score
GCCTGGCA | inactive: -0.219
AATAAAAT | ≥ 0.206
ATCTCCAC | inactive: -0.106
AGCACCGG | inactive: -0.156
GGTGTAGA | inactive: 0.125
TCACTTCA | inactive: -0.0704
CGAAATAA | inactive: 0.0832
GCAACAAC | inactive: 0.205
ATGCAATA | inactive: 0.197
AGTCCCAC | inactive: -0.0729
CGAATTCC | inactive: -0.0156
GAGCATAC | inactive: 0.00685
ACAACCAA | inactive: 0.261
AAAGCTTA | inactive: 0.0133
AATAGTCC | inactive: 0.00729
GAACCCCC | inactive: -0.339
CCCTCAGA | inactive: -0.142
ATGCCTCC | inactive: -0.174
CGGACACA | inactive: 0.156
ACCGAAGT | inactive: 0.0279
GGGAGGAC | inactive: -0.145
CAATTAAA | inactive: 0.0678
CGACGTCA | inactive: -0.114
AGTAAACC | inactive: 0.0838
TTAGAGAA | ≥ 0.028

Sequence | PBM E-score
CACGGACG | inactive: 0.0061
CGCTTGCC | inactive: -0.161
CAGGATCC | inactive: -0.112
AGACTATA | inactive: 0.0802
AATTTCCT | inactive: -0.0222
CGGGGCAA | inactive: -0.114
CCTTCAAC | inactive: 0.0475
CCCGTACG | inactive: -0.0886
CCTGCCTC | inactive: -0.194
ACGACTGG | inactive: -0.0548
ATCGTCAT | ≥ 0.155
CACTAACA | inactive: 0.221
ACACGAAC | inactive: 0.257
CGTTTCAC | inactive: -0.0269
CATCACTC | inactive: 0.0545
TCAGCCCA | inactive: -0.145
GAAGCCTA | inactive: -0.122
AGTTGACG | inactive: 0.0598
GATCAAAC | inactive: 0.0445
AGTGAGCC | inactive: -0.0704
CTGTCACC | inactive: 0.0574
CATGTCAG | active: 0.413
CTTTAAAG | inactive: -0.0483
